# Experimental data taken from PubChem BioAssay (NCATS).
# Where “and” joins values, the source holds several entries; their conditions need not be identical. Equal entries are not always repeated. The shares of active, inactive and inconclusive entries below differ from those in the screen. Potencies beside an inconclusive call are fits to weak or partial responses and may not hold up. Calls of active or inactive are those of the source. The call rests on the fitted dose curve; in most records, active means well fitted curve in the direction sought with a large enough effect; inconclusive means small, poorly fitted or top-dose-only effect, or another doubt; inactive means no such curve, though single readings can be large; an effect the other way counts as inactive or inconclusive.
# Assays:
# [1] = qHTS of pediatric cancer cell lines to identify multiple opportunities for drug repurposing: Primary screen for TC32 cells (AID 1347089); further: nearly all actives have a fitted effect of over 60% in size; on activity change, negative = cytotoxic: on the % scale 0 is the no-effect control and ±100 the full control effect
# Method in brief: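 Luminescent ATP read-out (CellTiter-Glo) of metabolically active TC32 cells after 48 h exposure. Concentration-response curves came from 11-point (MIPE, 0.78 nM–46 µM) or 8-point (NPC, 0.59 nM–46 µM) primary titrations; follow-up used 11 points.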
# [2] = qHTS of pediatric cancer cell lines to identify multiple opportunities for drug repurposing: Primary screen for DAOY cells (AID 1347090); details: DAOY medulloblastoma viability, CellTiter-Glo luminescence, 48 h; activity change, negative = cytotoxic: at 46 µM (top of the series); further: nearly all actives have a fitted effect of over 55% in size;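 on activity change, negative = cytotoxic: plate controls were DMSO for no effect and bortezomib for full effect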
# Method in brief: (§1)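 Eight- or eleven-point concentration series, 48 h treatment at 37 degrees C in growth media; readout CellTiter-Glo luminescence. Potency and efficacy were taken from the concentration-response curves.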
# [3] = qHTS of pediatric cancer cell lines to identify multiple opportunities for drug repurposing: Primary screen for SJ-GBM2 cells (AID 1347091);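 on activity change, negative = cytotoxic: plate controls were DMSO neutral control for no effect and bortezomib for full effect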
# Method in brief: as §1
# [4] = qHTS of pediatric cancer cell lines to identify multiple opportunities for drug repurposing: Primary screen for A673 cells (AID 1347092); details: A673 Ewing sarcoma viability, CellTiter-Glo ATP luminescence, 48 h; activity change, negative = cytotoxic: at 46 µM (top of the series) unless noted; further: nearly all actives have a fitted effect of over 45% in size; on activity change, negative = cytotoxic: on the % scale 0 is the no-effect control and ±100 the full control effect
# Method in brief: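 Cell viability of A673 measured by CellTiter-Glo ATP luminescence after 48 hours compound exposure. Dilution series spanned 0.78 nM to 46 µM (MIPE, 11-point) or 0.59 nM to 46 µM (NPC, 8-point); bortezomib 2.3 uM positive control.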
# Potency means the concentration at half of the fitted maximal effect; tags describe the fitted curve by direction and shape.
smiles,measurement,setting,value
Clc1ccc(CO/N=C(\Cn2ccnc2)c2ccc(Cl)cc2Cl)c(Cl)c1,Potency,[1],"inconclusive: 29.7 µM [cytotoxic, single point]"
same,Potency,[2],"inconclusive: 26.6 µM [cytotoxic, single point]"
same,Potency,[3],"inconclusive: 26.6 µM [cytotoxic, single point]"
same,Potency,[4],"inconclusive: 33.5 µM [cytotoxic, single point]"
COc1cccc([C@@]2(O)CCCC[C@@H]2CN(C)C)c1,Potency,[2],inactive
NC1CC1c1ccccc1 (configuration not stated),Potency,[2],inactive
CCCCCCCCc1ccc(O)cc1,Potency,[1],"inconclusive: 68.6 µM [cytotoxic, partial curve, poor fit]"
same,Potency,[3],"inconclusive: 24.6 µM [cytotoxic, partial curve]"
same,Potency,[4],"inconclusive: 19.5 µM [cytotoxic, partial curve]"
O=C(O)CNC(=O)c1c(O)c2ccccc2n(Cc2ccccc2)c1=O,Potency,[1],inactive
same,Potency,[4],"inconclusive: 14.8 µM [cytotoxic, partial curve, poor fit]"
COc1cc(C[C@@H](C)N)c(OC)cc1C,Potency,[2],inactive
CN1CCC(N(Cc2ccccc2)c2ccccc2)CC1,Potency,[2],inactive
CCOP(=S)(OCC)Oc1cc(C)nc(C(C)C)n1,Potency,[2],inactive
Oc1ccc2[nH]cc(CCCCN3CC=C(c4ccccc4)CC3)c2c1,Potency,[1],"inconclusive: 23.6 µM [cytotoxic, single point]"
same,Potency,[2],inactive
same,Potency,[3],"inconclusive: 11.9 µM [cytotoxic, partial curve]"
same,Potency,[4],"inconclusive: 8.41 µM [cytotoxic, partial curve]"
CCCN(CCC)c1c([N+](=O)[O-])cc(S(N)(=O)=O)cc1[N+](=O)[O-],Potency,[1],"inconclusive: 67.9 µM [cytotoxic, partial curve, poor fit]"
same,Potency,[4],"inconclusive: 48.6 µM [cytotoxic, single point]"
CC1=C2[C@H]3OC(=O)[C@@H](C)[C@@H]3CC[C@@]2(C)C=CC1=O,Potency,[2],inactive
CC(C)[C@]12O[C@@H]1[C@@H]1O[C@]13[C@]1(O[C@H]1C[C@@H]1C4=C(CC[C@@]13C)C(=O)OC4)[C@H]2O,Potency,[2],"inconclusive: 0.0037 µM [cytotoxic, full curve, poor fit]"
Cc1cc(SCc2sc(-c3ccc(C(F)(F)F)c(F)c3)nc2C)ccc1OCC(=O)O,Potency,[1],inactive
same,Potency,[2],inactive
same,Potency,[3],"inconclusive: 18.7 µM [cytotoxic, partial curve]"
same,Potency,[4],inactive
CCC(=O)OC1(c2ccccc2)CCN(C)CC1,Potency,[2],inactive
O=S(=O)(O)C(F)(F)C(F)(F)C(F)(F)C(F)(F)C(F)(F)C(F)(F)C(F)(F)C(F)(F)F,Potency,[2],inactive
CN1CCN(C(=O)O[C@H]2c3nccnc3C(=O)N2c2ccc(Cl)cn2)CC1,Potency,[2],inactive
O=[N+]([O-])c1ccc([As](=O)(O)O)cc1,Potency,[2],inactive
CNC(=O)NC(O)C(Cl)(Cl)Cl (configuration not stated),Potency,[2],inactive
CCCCCCC(=O)CCCCCC/C=C/C[C@@H](O)[C@H](O)[C@@](N)(CO)C(=O)O,Potency,[2],inactive
O=C1c2ccccc2C(=O)C1C(=O)C(c1ccccc1)c1ccccc1,Potency,[1],"inconclusive: 1.18 µM [rising, partial curve, poor fit]"
same,Potency,[3],"inconclusive: 23.7 µM [cytotoxic, single point]"
same,Potency,[4],"inconclusive: 21.1 µM [cytotoxic, single point]"
Cc1cccc(C)c1NC1=NCCCS1,Potency,[2],inactive
CCOC(=O)c1ncn2c1CN(C)C(=O)c1c(I)cccc1-2,Potency,[1],inactive
same,Potency,[3],inactive
same,Potency,[4],inactive
O=S(=O)(CC1CS1)c1ccc(Oc2ccccc2)cc1 (configuration not stated),Potency,[1],"inconclusive: 20.8 µM [cytotoxic, partial curve, poor fit]"
same,Potency,[2],"inconclusive: 29.6 µM [cytotoxic, single point]"
same,Potency,[4],active: 9.35 µM
COc1c2c(cc3c1OCO3)CCN(C)C2,Potency,[1],inactive
same,Potency,[3],inactive
same,Potency,[4],inactive
CCC(=O)O[C@H]1CC[C@H]2[C@@H]3CCC4=CC(=O)CC[C@]4(C)[C@H]3CC[C@]12C,Potency,[2],inactive
O=C1C=CC[C@@H]2[C@H]3CCCN4CCC[C@@H](CN12)[C@@H]34,Potency,[1],"inconclusive: 20.8 µM [cytotoxic, partial curve, poor fit]"
same,Potency,[2],"inconclusive: 18.7 µM [cytotoxic, single point]"
same,Potency,[3],"inconclusive: 18.7 µM [cytotoxic, partial curve]"
same,Potency,[4],"inconclusive: 18.7 µM [cytotoxic, partial curve, poor fit]"
CC[N+]1(C)CCCC(OC(=O)C(O)(c2ccccc2)c2ccccc2)C1 (configuration not stated),Potency,[2],inactive
CCCC[N+]1(C)[C@@H]2CC(OC(=O)[C@H](CO)c3ccccc3)C[C@H]1[C@@H]1O[C@@H]12 (some centres not stated),Potency,[2],inactive
O=C1CC[C@@]2(O)[C@H]3Cc4ccc(O)c5c4[C@@]2(CCN3CC2CC2)[C@H]1O5,Potency,[2],"inconclusive: 14.8 µM [cytotoxic, partial curve, poor fit]"
CCC1(CC)C(=O)NC(=O)NC1=O,Potency,[2],inactive
CC(=Cc1csc(C)n1)[C@@H]1C[C@H]2O[C@@H]2CCC[C@H](C)[C@@H](O)[C@@H](C)C(=O)C(C)(C)[C@@H](O)CC(=O)O1,"activity change, negative = cytotoxic",[2],inconclusive: -60.7%
N[C@@H](Cc1ccc(N(CCCl)CCCl)cc1)C(=O)O,Potency,[1],"inconclusive: 29.7 µM [cytotoxic, single point] and active: 20.8 µM"
same,Potency,[3],"inconclusive: 26.6 µM [cytotoxic, single point]"
same,Potency,[4],active: 6.68 µM and active: 5.9 µM
O=C(O)c1nn(Cc2ccc(Cl)cc2Cl)c2ccccc12,Potency,[2],"inconclusive: 29.6 µM [cytotoxic, partial curve, poor fit]"
CC(C)(C)NCC(O)c1cc(Cl)c(N)c(Cl)c1 (configuration not stated),Potency,[2],inactive
CCOC(=O)CC(SP(=S)(OC)OC)C(=O)OCC (configuration not stated),Potency,[2],inactive
Cc1ncsc1CCCl,Potency,[2],inactive
Nc1ccc(Cl)cc1C(=O)c1ccccc1F,Potency,[1],"inconclusive: 5.28 µM [rising, partial curve, poor fit]"
same,Potency,[4],"inconclusive: 33.5 µM [cytotoxic, single point]"
CC(C)N(CCC(C(N)=O)(c1ccccc1)c1ccccn1)C(C)C (configuration not stated),Potency,[2],inactive
O=C(O)C(=O)c1cn(Cc2ccccc2)c2ccc(-c3ccc(OC(F)(F)F)cc3)cc12,Potency,[2],"inconclusive: 18.7 µM [cytotoxic, partial curve, poor fit]"
same,Potency,[3],"inconclusive: 33.2 µM [cytotoxic, single point]"
COc1ccc(C(CN(C)C)C2(O)CCCCC2)cc1 (configuration not stated),Potency,[2],inactive
Cc1ccc(Cl)c(O)c1,Potency,[3],inactive
O=C(CCl)c1ccc(Cl)cc1Cl,Potency,[2],"inconclusive: 33.5 µM [cytotoxic, single point]"
same,Potency,[3],"inconclusive: 29.9 µM [cytotoxic, single point]"
CC(=Cc1csc(C)n1)[C@@H]1C[C@H]2O[C@]2(C)CCC[C@H](C)[C@@H](O)[C@@H](C)C(=O)C(C)(C)[C@@H](O)CC(=O)O1,"activity change, negative = cytotoxic",[2],inconclusive: -67.4%
same,"activity change, negative = cytotoxic",[4],inconclusive: -91.3%
CN1C(=O)CCS(=O)(=O)C1c1ccc(Cl)cc1 (configuration not stated),Potency,[2],"inconclusive: 23.5 µM [cytotoxic, single point]"
same,Potency,[4],"inconclusive: 29.6 µM [cytotoxic, single point]"
CCC1(c2cccc(O)c2)CCCCN(C)C1 (configuration not stated),Potency,[3],inactive
CN1C(=O)CN=C(c2ccccc2)c2cc(Cl)ccc21,Potency,[2],inactive
same,Potency,[4],"inconclusive: 10.6 µM [cytotoxic, partial curve, poor fit]"
C[C@@H]1CC[C@H]2[C@@H](C)C(=O)O[C@@H]3O[C@@]4(C)CC[C@H]1[C@]32OO4,Potency,[2],"inconclusive: 11.8 µM [cytotoxic, partial curve]"
same,Potency,[3],inactive
C[C@]12Cc3cn[nH]c3C[C@@H]1CC[C@@H]1[C@@H]2CC[C@@]2(C)[C@H]1CC[C@]2(C)O,Potency,[2],"inconclusive: 26.6 µM [cytotoxic, single point]"
same,Potency,[3],"inconclusive: 33.5 µM [cytotoxic, single point]"
CN1C(=O)[C@@H](NC(=O)c2cc3ccccc3[nH]2)N=C(c2ccccc2)c2ccccc21,Potency,[2],"inconclusive: 8.41 µM [cytotoxic, full curve, poor fit]"
same,Potency,[3],"inconclusive: 33.5 µM [cytotoxic, single point]"
c1ccc(CN2CCNCC2)cc1,Potency,[3],inactive
CCC(COC(=O)c1cc(OC)c(OC)c(OC)c1)(c1ccccc1)N(C)C (configuration not stated),Potency,[3],"inconclusive: 33.5 µM [cytotoxic, single point]"
CN(C)[C@@H]1C(=O)C(C(N)=O)=C(O)[C@@]2(O)C(=O)C3=C(O)c4c(O)cccc4[C@@](C)(O)[C@H]3[C@H](O)[C@@H]12,Potency,[3],inactive
C[C@]12CCC(=O)C=C1CC[C@@H]1[C@@H]2CC[C@@]2(C)[C@H]1CC[C@]2(C)O,Potency,[3],"inconclusive: 18.8 µM [cytotoxic, single point]"
CN(C)CCc1c[nH]c2ccc(O)cc12,Potency,[2],"inconclusive: 47.6 µM [cytotoxic, single point]"
same,Potency,[4],"inconclusive: 47.6 µM [cytotoxic, single point]"
C[C@H]1CNCCc2ccc(Cl)cc21,Potency,[3],inactive
C#C[C@]1(O)CC[C@H]2[C@@H]3CCC4=CC(=O)CCC4=C3C=C[C@@]21CC,Potency,[2],"inconclusive: 21.1 µM [cytotoxic, partial curve, poor fit]"
same,Potency,[4],"inconclusive: 16.8 µM [cytotoxic, single point]"
O=c1oc2ccccc2c(O)c1Cc1c(O)c2ccccc2oc1=O,Potency,[2],inactive
same,Potency,[3],"inconclusive: 13.3 µM [cytotoxic, partial curve]"
CCCCCCCCC(=O)NCc1ccc(O)c(OC)c1,"activity change, negative = cytotoxic",[2],inconclusive: -23.7%
same,"activity change, negative = cytotoxic",[4],inconclusive: -60.8%
